# From PubChem BioAssay AID1347071 (National Center for Advancing Translational Sciences (NCATS), 2019)
# Hit rate of the full screen: of about 410,000 compounds, about 260 (0.063%) were called active. Inconclusive results, whose numbers are uncertain, are shown with a selection of clear calls. Calls come from the whole dose curve; as a rule, active = well fitted activation curve with a large enough effect; inconclusive = small, poorly fitted or top-dose-only effect; inactive = no such curve, though single readings can be large or run the other way. Potencies of inconclusive entries are left out as doubtful fits.
# Assay: qHTS for compounds that reverse cellular toxicity of Amyloid beta (A-beta) peptide in yeast: Primary Screen; note: nearly all actives have a fitted effect of over 55% in size
# Settings: yeast expressing A-beta42, growth rescue, OD600, 48 h; growth rescue: at 46.1 µM (top of the series), 0% DMSO, 100% iron-clioquinol control
# Outline: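 Growth rescue measured by 600 nm absorbance after 48 h yeast culture at 30 C with compound. Values normalized between DMSO and an equimolar ferric chloride plus clioquinol control.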
# Potency is the fitted concentration of half-maximal effect; tags give direction and shape of the fitted curve.
SMILES,Potency,growth rescue
O=C(NC(=S)Nc1ccccn1)c1cncc(Br)c1,"inconclusive [activator, single point]",–
CC(C)Cn1c(N)c(S(=O)(=O)c2cccs2)c2nc3ccccc3nc21,–,inactive: 4.31%
O=C(Nc1nnc(C2=COCCO2)o1)c1ccc(Cl)cc1,"inconclusive [activator, single point]",–
Clc1ccccc1C1=CC(c2ccco2)n2nnnc2N1 (configuration not stated),"inconclusive [activator, single point]",–
O=C(c1ccc2c(c1)OCO2)N1CCCC1,–,inactive: 4.33%
COc1ccc(-c2nc3ccccc3n2Cc2ccccc2)cc1,inactive,–
Cc1cc(C)c(OCC(=O)OCC(=O)N2c3ccccc3CC2C)c(C)c1 (configuration not stated),"inconclusive [activator, single point]",–
CCOC(=O)CCCNC(=O)c1cncc(O)c1,–,inactive: -20.2%
Cc1ccccc1C(=O)Nc1nnc(CC(=O)N/N=C/c2cn(Cc3ccccc3)c3ccccc23)s1,–,inactive: 9.02%
CCN(CC)c1ccc(/C=C(\C#N)c2ccccn2)cc1,–,inactive: -17.7%
CC(C)c1ccc(OCC(=O)Nc2ccc(S(=O)(=O)Nc3ncccn3)cc2)cc1,–,inactive: -5.09%
CC(=O)Oc1c(S(=O)(=O)c2ccc(C)cc2)c(C)nn1-c1ccccc1,"inconclusive [activator, partial curve, poor fit]",–
CCCCN(CC)CCNC(=O)CN(C)S(=O)(=O)c1ccc2c(c1)c(=O)n(C)c(=O)n2C,"inconclusive [activator, partial curve, poor fit]",–
CCN(CC)S(=O)(=O)c1ccc(C)c(NC(=O)/C=C/c2cccs2)c1,"inconclusive [activator, full curve]",–
N#C/C(=C/c1ccc(Oc2ccc([N+](=O)[O-])cn2)cc1)C(=O)N1CCOCC1,"inconclusive [activator, single point]",–
Cc1ccc(NC(=O)c2nc[nH]c2C(=O)N[C@@H](C)c2ccccc2)cc1,"inconclusive [activator, single point]",–
S=c1[nH]cc(-c2ccccc2)n1-c1ccccc1Cl,"inconclusive [activator, full curve]",–
Cc1cc(C)cc(N(CC(=O)Nc2ccc(Br)cc2)S(=O)(=O)c2c(C)[nH]c(=O)[nH]c2=O)c1,–,inactive: -6.88%
CC(C)(C)c1ccc(OCCC(=O)OCC(=O)NC2CCS(=O)(=O)C2)cc1 (configuration not stated),–,inactive: 4.77%
COc1ccc(Br)cc1C(=O)Nc1ccc(C(=O)O)cc1,"inconclusive [activator, full curve]",–
COCCN(C(=S)Nc1ccc(C)cc1)C(C)c1ccco1 (configuration not stated),"inconclusive [activator, single point]",–
O=C(COc1ccc(C2SCCS2)cc1)NNC(=O)C(Cl)Cl,–,inactive: 0.547%
CN(C(=O)c1ccccc1C(=O)OCC(=O)c1ccc(F)c(F)c1)C1CCCCC1,"inconclusive [activator, single point]",–
O=C(O)c1cc(-c2ccccc2Cl)n(-c2cccc(Cl)c2)n1,–,inactive: 0.518%

SMILES,Potency,growth rescue
CC(=O)NS(=O)(=O)c1cccnc1Nc1cccc(Cl)c1,"inconclusive [activator, partial curve, poor fit]",–
CCOCCn1ccc2c(OCC(=O)Nc3cc(C(F)(F)F)ccc3Cl)cccc2c1=O,–,inactive: -7.56%
O=C(CNC(=O)c1ccc(Br)o1)NCC1CCCO1 (configuration not stated),"inconclusive [activator, single point]",–
CCOc1ccc(-c2csc(NC(=O)c3ccc(S(=O)(=O)N4CCc5ccccc5C4)cc3)n2)cc1,–,inactive: -8.41%
COc1ccccc1/C=C/C(=O)NCC(=O)N/N=C(\CCC(=O)O)c1ccccc1,"inconclusive [activator, single point]",–
C=Cc1ccc(Cn2c(C(=O)O)c(CNCc3cc(OC)ccc3OC)c3ccc(C)cc32)cc1,–,inactive: -0.229%
Cc1ccccc1C(=O)NNC(=S)NC(=O)c1ccccc1,"inconclusive [activator, single point]",–
CCn1ncc(CN2CCCC(C(=O)Nc3cccc(-c4cc5ccccc5[nH]4)c3)C2)c1C (configuration not stated),"inconclusive [activator, partial curve]",–
Cc1ccc(Cl)cc1NC(=S)N1CCCCCC1,"inconclusive [activator, single point]",–
COCC(C)NC(=S)NCCc1ccc(Cl)cc1Cl (configuration not stated),"inconclusive [activator, single point]",–
CCCC(=O)NC1CC(=O)N(c2ccc3c(c2)OCCO3)C1 (configuration not stated),–,inactive: -6.55%
COc1ccc(S(=O)(=O)N2CC3CCCN3c3ccc(C(F)(F)F)cc32)cc1 (configuration not stated),"inconclusive [activator, full curve]",–
CC1CN(C(=S)Nc2ccc(Br)cc2)CC(C)O1 (configuration not stated),"inconclusive [activator, partial curve, poor fit]",–
CC(C)C[C@@H](CO)N(Cc1ccccc1)S(=O)(=O)N(Cc1ccccc1)[C@@H](CO)CC(C)C,"inconclusive [activator, single point]",–
CCCCC(=O)NC(c1ccc([N+](=O)[O-])cc1)c1c(O)ccc2ccccc12 (configuration not stated),"inconclusive [activator, partial curve, poor fit]",–
Cc1ccc(CONS(=O)(=O)c2cc(C)ccc2C)cc1,–,inactive: 4.18%
O=C1c2cnc3ncnn3c2CC2c3ccccc3CCN12 (configuration not stated),–,inactive: 3.48%
O=C(CN1CCOCC1)N1N=C(c2cccs2)CC1c1cccs1 (configuration not stated),–,inactive: -10.5%
C=CCn1c(CSc2ccc(C)cc2)n[nH]c1=S,"inconclusive [activator, partial curve, poor fit]",–
CSCCC(NC(=O)c1ccccc1Br)C(=O)NNC(=O)c1ccco1 (configuration not stated),–,inactive: -8.12%
Cc1ccccc1NC(=S)NC(=O)COc1ccccc1C,"inconclusive [activator, partial curve, poor fit]",–
Cc1ccc(S(=O)(=O)/N=C2\SC(CC(=O)Nc3ccc(F)cc3)C(=O)N2c2ccccc2)cc1 (configuration not stated),–,inactive: 2.52%
Cc1cccc(-c2cc(NC(=O)c3ccccc3C)n(-c3ccccc3)n2)c1,–,inactive: -15.4%
